T1: RBFOX1 RRM RbFoxmut (Fox-RRM*) (Homo sapiens, UniProt Q9NWB1 109-208, R118D;E147R;N151S;E152T)
T1 sequence: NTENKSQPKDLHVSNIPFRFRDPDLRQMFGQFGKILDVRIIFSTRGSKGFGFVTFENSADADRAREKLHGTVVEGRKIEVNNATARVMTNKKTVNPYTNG

B1: CUGAUCA (DNA:RNA)
RNA: GGGAGACCGGAAUUCAGAUUGUCCCUGAUCAUUAAAUCCCGUCGUAGCCACCA
DNA 1: CAATCTGAATTCCGGTCTCCC
DNA 2: TGGTGGCTACGACGGGATT
B2: UUCCUAA (DNA:RNA)
RNA: B1 RNA with C25U, G27C, A28C, C30A
DNA 1: CAATCTGAATTCCGGTCTCCC
DNA 2: TGGTGGCTACGACGGGATT
B3: UUGAAUU (DNA:RNA)
RNA: B1 RNA with C25U, U29A, C30U, A31U
DNA 1: CAATCTGAATTCCGGTCTCCC
DNA 2: TGGTGGCTACGACGGGATT
B4: GCAUGCG (DNA:RNA)
RNA: B1 RNA with C25G, U26C, G27A, A28U, U29G, A31G
DNA 1: CAATCTGAATTCCGGTCTCCC
DNA 2: TGGTGGCTACGACGGGATT
B5: AACUACA (DNA:RNA)
RNA: B1 RNA with C25A, U26A, G27C, A28U, U29A
DNA 1: CAATCTGAATTCCGGTCTCCC
DNA 2: TGGTGGCTACGACGGGATT
B6: GGCUUGC (DNA:RNA)
RNA: B1 RNA with C25G, U26G, G27C, A28U, C30G, A31C
DNA 1: CAATCTGAATTCCGGTCTCCC
DNA 2: TGGTGGCTACGACGGGATT
B7: ACAUCGC (DNA:RNA)
RNA: GGGAGACCGGAAUUCAGAUUGUCCACAUCGCUUAAAUCCCGUCGUAGCCACCA
DNA 1: CAATCTGAATTCCGGTCTCCC
DNA 2: TGGTGGCTACGACGGGATT
B8: UUGUUAA (DNA:RNA)
RNA: B1 RNA with C25U, A28U, C30A
DNA 1: CAATCTGAATTCCGGTCTCCC
DNA 2: TGGTGGCTACGACGGGATT
B9: AGCCACG (DNA:RNA)
RNA: B7 RNA with C26G, A27C, U28C, C29A, G30C, C31G
DNA 1: CAATCTGAATTCCGGTCTCCC
DNA 2: TGGTGGCTACGACGGGATT
B10: CUUUAAU (DNA:RNA)
RNA: B1 RNA with G27U, A28U, U29A, C30A, A31U
DNA 1: CAATCTGAATTCCGGTCTCCC
DNA 2: TGGTGGCTACGACGGGATT
B11: GUUUUCC (DNA:RNA)
RNA: B1 RNA with C25G, G27U, A28U, A31C
DNA 1: CAATCTGAATTCCGGTCTCCC
DNA 2: TGGTGGCTACGACGGGATT
B12: AGAAAGG (DNA:RNA)
RNA: B7 RNA with C26G, U28A, C29A, C31G
DNA 1: CAATCTGAATTCCGGTCTCCC
DNA 2: TGGTGGCTACGACGGGATT
B13: CCUCAUC (DNA:RNA)
RNA: B7 RNA with A25C, A27U, U28C, C29A, G30U
DNA 1: CAATCTGAATTCCGGTCTCCC
DNA 2: TGGTGGCTACGACGGGATT
B14: CUGAGCA (DNA:RNA)
RNA: B1 RNA with U29G
DNA 1: CAATCTGAATTCCGGTCTCCC
DNA 2: TGGTGGCTACGACGGGATT
B15: GGUUGUC (DNA:RNA)
RNA: B7 RNA with A25G, C26G, A27U, C29G, G30U
DNA 1: CAATCTGAATTCCGGTCTCCC
DNA 2: TGGTGGCTACGACGGGATT
B16: AAUCAAA (DNA:RNA)
RNA: B7 RNA with C26A, A27U, U28C, C29A, G30A, C31A
DNA 1: CAATCTGAATTCCGGTCTCCC
DNA 2: TGGTGGCTACGACGGGATT
B17: GGCACCG (DNA:RNA)
RNA: B1 RNA with C25G, U26G, G27C, U29C, A31G
DNA 1: CAATCTGAATTCCGGTCTCCC
DNA 2: TGGTGGCTACGACGGGATT
B18: CAGGUUU (DNA:RNA)
RNA: B1 RNA with U26A, A28G, C30U, A31U
DNA 1: CAATCTGAATTCCGGTCTCCC
DNA 2: TGGTGGCTACGACGGGATT
B19: GAACGCG (DNA:RNA)
RNA: B7 RNA with A25G, C26A, U28C, C29G, G30C, C31G
DNA 1: CAATCTGAATTCCGGTCTCCC
DNA 2: TGGTGGCTACGACGGGATT
B20: UUACAGG (DNA:RNA)
RNA: B7 RNA with A25U, C26U, U28C, C29A, C31G
DNA 1: CAATCTGAATTCCGGTCTCCC
DNA 2: TGGTGGCTACGACGGGATT

Residue numbers refer to the chain shown, from its start. The list shows a part of the results.

The test concerns the target T1, RBFOX1 RRM RbFoxmut (Fox-RRM*). Put plainly: EMSA; HiTS-Eq, 1 nM pool, 10 min; buffer printed only for the single-RNA assays: 10 mM Tris pH 7.5, 150 mM NaCl, 3.4 mM EDTA, 0.001% NP-40, 30 C. Conditions: tags: His6 N-terminal (pET28a); label: 5' 32P. Summed up: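 Purified RbFox RRM, wild type or mutant, was incubated for 10 min in 50 µL with 1 nM of a 5′-radiolabelled RNA pool carrying 7 randomized nucleotides, whose flanks were annealed to DNA oligonucleotides, over a series of increasing protein concentrations. Unbound RNA was resolved on 8% native PAGE, cut out, reverse-transcribed, barcoded by PCR and sequenced on an Illumina HiSeq 2500. Relative association constants were derived from changes in read counts for each RNA species versus the control reaction and normalised to the cognate motif.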
As to B1, the binding signal was 0.066 KA relative to UGCAUGU. Then B2, with 0.0929 KA relative to UGCAUGU. As for B3, the binding signal is 0.104 KA relative to UGCAUGU.

As to B4, the binding signal was 0.872 KA relative to UGCAUGU. The same measure for B5: 0.121 KA relative to UGCAUGU; for B6: 0.199 KA relative to UGCAUGU. B7: the binding signal is 0.107 KA relative to UGCAUGU. On to B8, for which the binding signal is 0.152 KA relative to UGCAUGU. Regarding B9, the binding signal was 0.0895 KA relative to UGCAUGU. Then B10, with 0.0766 KA relative to UGCAUGU; and B11, with 0.0513 KA relative to UGCAUGU; and B12, with 0.072 KA relative to UGCAUGU. Then B13, with 0.0765 KA relative to UGCAUGU. For B14, the binding signal is 0.125 KA relative to UGCAUGU. The same measure for B15: 0.232 KA relative to UGCAUGU; for B16: 0.0706 KA relative to UGCAUGU; for B17: 0.132 KA relative to UGCAUGU.

For B18, the binding signal is 0.0791 KA relative to UGCAUGU. Consider B19, for which the binding signal is 0.178 KA relative to UGCAUGU.

On to B20, for which the binding signal is 0.0908 KA relative to UGCAUGU.

These data come from PMC9911399, “Two distinct binding modes provide the RNA-binding protein RbFox with extraordinary sequence specificity”.
